In paper PMC4336329 (PLoS ONE, 2015):
Hit rate of the full screen: of about 310,000 compounds, about 2,200 (0.71%) showed an effect of 50% or more. Effects have a minus sign here. This is one part of the list.

What follows are molecules tested against human ether-à-go-go-related gene (hERG) potassium channel (human, UniProt Q12809) (assay: primary screen, population patch clamp on CHO cells stably expressing hERG).
Chain of human ether-à-go-go-related gene (hERG) potassium channel (Q12809 whole entry, looked up): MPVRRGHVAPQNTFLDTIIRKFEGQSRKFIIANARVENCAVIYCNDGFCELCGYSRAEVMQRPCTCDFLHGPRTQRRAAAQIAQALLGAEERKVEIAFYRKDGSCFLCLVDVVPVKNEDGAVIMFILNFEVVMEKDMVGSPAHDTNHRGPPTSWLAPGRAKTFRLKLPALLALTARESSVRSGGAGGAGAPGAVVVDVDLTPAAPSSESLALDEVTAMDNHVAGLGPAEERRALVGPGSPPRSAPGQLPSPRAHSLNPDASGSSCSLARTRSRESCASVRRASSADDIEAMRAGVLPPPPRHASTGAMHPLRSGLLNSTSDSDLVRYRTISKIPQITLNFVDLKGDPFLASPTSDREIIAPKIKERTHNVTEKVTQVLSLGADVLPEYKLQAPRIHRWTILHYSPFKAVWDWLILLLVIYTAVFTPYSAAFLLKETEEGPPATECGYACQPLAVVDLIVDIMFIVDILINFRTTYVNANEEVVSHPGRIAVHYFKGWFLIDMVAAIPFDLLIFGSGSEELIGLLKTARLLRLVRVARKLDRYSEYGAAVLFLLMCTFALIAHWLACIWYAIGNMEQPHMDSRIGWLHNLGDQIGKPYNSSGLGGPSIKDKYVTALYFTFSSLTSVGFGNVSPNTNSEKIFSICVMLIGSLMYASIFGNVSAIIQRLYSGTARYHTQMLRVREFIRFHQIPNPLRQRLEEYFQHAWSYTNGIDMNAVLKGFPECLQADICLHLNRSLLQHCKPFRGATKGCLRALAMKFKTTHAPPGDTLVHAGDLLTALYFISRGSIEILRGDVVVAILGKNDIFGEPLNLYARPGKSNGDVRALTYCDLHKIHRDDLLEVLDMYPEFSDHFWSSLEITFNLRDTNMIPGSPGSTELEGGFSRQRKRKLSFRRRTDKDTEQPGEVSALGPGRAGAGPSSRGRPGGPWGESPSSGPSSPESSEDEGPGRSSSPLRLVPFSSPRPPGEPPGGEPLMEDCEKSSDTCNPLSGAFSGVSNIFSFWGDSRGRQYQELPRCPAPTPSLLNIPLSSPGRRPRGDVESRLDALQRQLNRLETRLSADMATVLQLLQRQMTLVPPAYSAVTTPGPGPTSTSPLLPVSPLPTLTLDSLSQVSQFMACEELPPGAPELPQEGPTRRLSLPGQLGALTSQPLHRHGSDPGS

Structure (SMILES)	hERG current change (%, negative = inhibition) at 1uM [%]
COc1ccccc1OCCNC(=O)c1cccc(S(=O)(=O)N2CCN(C)CC2)c1	8.31
O=C(N/N=C/c1cn(-c2ccccc2)nc1-c1cccnc1)c1cccnc1	-26.3
Cc1nc(-c2coc3cc(O)c(C)cc3c2=O)cs1	8.07
NC(=O)c1c(NC(=O)CSc2nc(N)cc(=O)[nH]2)sc2c1CCCC2	11.8
O=C(O)Cc1ccc2[nH]c3ccc(CC(=O)O)cc3c2c1	10.2
O=C1CC(c2nc3ccccc3[nH]2)CN1c1cccc(C(F)(F)F)c1 (stereo not drawn)	2.47
O=C1c2[nH]nc(-c3ccccc3O)c2C(c2ccc(F)cc2)N1CC1CCCO1 (stereo not drawn)	9.86
COc1ccc(-n2nnnc2SCC(=O)c2cc3ccccc3o2)cc1	-0.102
C=C(C)COc1ccc(-c2nc(N)nc(C)c2-c2ccc(OC)cc2)c(O)c1	4.2
CCn1cc(C(=O)NC2CCCCC2)c(=O)c2ccc(C)nc21	10.8
CC1(C)Cc2c(sc3c2c(=N)n(Cc2ccco2)c(=O)n3CC(=O)Nc2cccc(Cl)c2)CO1	11.9
O=C(NC1CCCCC1)C1CC(=O)N(c2cccc([N+](=O)[O-])c2)C1 (stereo not drawn)	10.7
CCNc1nc(-c2cc(C)n(Cc3ccco3)c2C)cs1	7.49
Cc1ccc(/C=N/N2CCN(C3c4ccccc4-c4ccccc43)CC2)o1	12.6
Cc1ccc(NC(=O)Cn2cnc3c(oc4nc5c(cc43)COC(C)(C)C5)c2=O)cc1	9.64
CN(CCc1ccccn1)C(=O)c1ccc(OC2CCN(Cc3ccccn3)CC2)cc1	11.3
O=C(CCCCCN1C(=O)CCC1=O)Nc1ccc2c(c1)OCO2	14.8
O=C(NNC(=S)Nc1ccc(F)cc1)[C@H]1C[C@@H]1c1ccccc1	13.2
O=C(Nc1nccs1)C1C2CC3OC(=O)C1C3C2 (stereo not drawn)	13.7
O=C1CCc2cc(S(=O)(=O)N3CCCC3C(=O)N3CCN(c4ccccc4F)CC3)ccc2N1 (stereo not drawn)	6.96
Cc1cc(NC(=O)Nc2ccc(C)c(C)c2)no1	5.77
CCC(C)C(NC(=O)CCCNC(=O)CCC(=O)OC1O[C@H]2OC3(C)CC[C@H]4[C@H](C)CCC(C1C)C24OO3)C(=O)O (stereo partly drawn)	12
c1ccc(Sc2ccccn2)cc1	12.3
c1ccc(-c2ccccc2-c2nc(-c3ccncc3)no2)cc1	12.8
